# Laboratory results published in paper PMC4336329 (PLoS ONE, 2015).
# Screen size: about 310,000 compounds; about 2,200 (0.71%) showed an effect of 50% or more. The effect is printed as a negative number. Some of the results follow.
# Molecular target: human ether-à-go-go-related gene (hERG) potassium channel (human, UniProt Q12809)
# Test: primary screen, population patch clamp on CHO cells stably expressing hERG
# Chain of human ether-à-go-go-related gene (hERG) potassium channel (Q12809 whole entry, looked up): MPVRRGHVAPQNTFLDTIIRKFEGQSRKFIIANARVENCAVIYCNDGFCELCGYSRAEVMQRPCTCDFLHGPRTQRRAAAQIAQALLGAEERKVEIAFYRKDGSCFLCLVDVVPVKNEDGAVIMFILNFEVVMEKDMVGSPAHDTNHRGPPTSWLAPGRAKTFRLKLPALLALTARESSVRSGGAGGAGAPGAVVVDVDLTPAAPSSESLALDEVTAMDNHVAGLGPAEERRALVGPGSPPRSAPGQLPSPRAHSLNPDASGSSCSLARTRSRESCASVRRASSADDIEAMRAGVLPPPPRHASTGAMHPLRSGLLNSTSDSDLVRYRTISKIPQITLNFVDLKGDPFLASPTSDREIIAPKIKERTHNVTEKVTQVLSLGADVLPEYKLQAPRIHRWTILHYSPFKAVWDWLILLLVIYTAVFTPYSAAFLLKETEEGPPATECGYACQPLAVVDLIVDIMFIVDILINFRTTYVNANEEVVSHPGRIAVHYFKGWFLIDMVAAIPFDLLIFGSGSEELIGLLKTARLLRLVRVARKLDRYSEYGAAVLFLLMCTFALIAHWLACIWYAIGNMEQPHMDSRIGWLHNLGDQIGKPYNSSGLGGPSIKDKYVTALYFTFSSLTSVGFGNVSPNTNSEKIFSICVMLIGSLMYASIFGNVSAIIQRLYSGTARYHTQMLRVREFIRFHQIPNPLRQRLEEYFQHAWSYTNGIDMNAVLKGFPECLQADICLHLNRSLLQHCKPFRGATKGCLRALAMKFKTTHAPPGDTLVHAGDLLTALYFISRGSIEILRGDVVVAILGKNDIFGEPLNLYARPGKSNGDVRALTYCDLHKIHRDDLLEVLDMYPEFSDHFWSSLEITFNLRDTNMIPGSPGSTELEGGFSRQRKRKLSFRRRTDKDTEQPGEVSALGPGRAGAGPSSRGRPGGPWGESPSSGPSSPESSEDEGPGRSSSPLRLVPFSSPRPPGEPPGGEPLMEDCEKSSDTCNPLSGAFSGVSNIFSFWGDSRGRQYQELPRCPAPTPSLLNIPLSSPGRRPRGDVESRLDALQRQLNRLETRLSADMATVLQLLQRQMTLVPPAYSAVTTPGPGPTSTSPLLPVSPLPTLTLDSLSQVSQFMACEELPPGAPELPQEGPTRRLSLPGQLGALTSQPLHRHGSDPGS
row,Compound,"hERG current change (%, negative = inhibition) at 1uM"
1,O=C(O)[C@@H]1[C@@H]2C[C@@H]2CN1c1ncccc1[N+](=O)[O-],17.5%
2,COCCNC(=O)CN(C(=O)CCC(=O)Nc1ccccn1)c1ccc(C)cc1,10.2%
3,CCOC(Cn1c(CCCO)nc2ccccc21)OCC,-3.21%
4,Cc1c(C(=O)N2CCC3(CC2)CC(=O)c2ccccc2O3)cccc1[N+](=O)[O-],-83.9%
5,Cc1cc(NC(=O)c2cnn3cccnc23)n(-c2ccccc2)n1,-19.5%
6,CCOc1ccccc1CNC(=O)C1CCN(C(=O)N2CC(C)Oc3ccc(C)cc32)CC1 (centres unmarked),9.52%
7,COc1ccccc1C(=O)OCCN1CCOCC1.Cl,-1.02%
8,Cc1cccc(NC2=NC(=S)N(CC#N)C23CCCCC3)c1,7.23%
9,O=C(O)CSc1nnc(CNc2ccc(F)cc2)n1-c1ccccc1,9.25%
10,COc1ccc(S(=O)(=O)N2CCOCC2)cc1NC(=O)COC(=O)C1CCC1,11.6%
11,Cn1cnnc1SCCOc1ccc(Cl)cc1,4.34%
12,Cc1cc(C(=O)Nc2ccc3[nH]ccc3c2)no1,13.4%
13,O=C1CN(C(=O)COC(=O)Cc2ccsc2)c2ccccc2N1,-4.73%
14,Cc1cc(C)n(-c2cc(Oc3ccccc3)ncn2)n1,11%
15,Cc1nn(Cc2ccccc2)c(=O)n1N(C)c1ncc(C(F)(F)F)cc1Cl,5.61%
16,COc1ccc(-c2nc(CS(=O)CC(=O)NC3CCCCC3C)c(C)o2)cc1 (centres unmarked),12.6%
17,CC(CCc1ccccc1)C(=O)NO (centres unmarked),10.1%
18,Cc1cc2cc3c(C)cc(=O)oc3c(C)c2o1,18.6%
19,CN(C)CCCNc1ncc(C(F)(F)F)cc1Cl,10.3%

row,Compound,"hERG current change (%, negative = inhibition) at 1uM"
1,COCCNC(=O)CSc1nc2ccc(N3CCOCC3)cc2c(=O)n1CCc1ccccc1,-21.3%
2,COc1ccc(C)cc1-n1nnnc1SCC(=O)NC(=O)NCc1ccco1,16.7%
3,CCCNCC(O)Cn1c2ccccc2n2c(=O)cc(C)c(C#N)c12 (centres unmarked),7.54%
4,CS(=O)(=O)N(CC(=O)N1CCN(c2ccc(F)cc2)CC1)c1cccc(Cl)c1,-5.21%
5,O=C(COC(=O)c1cccc(S(=O)(=O)Nc2ccc(F)cc2)c1)NCCN1C(=O)CSC1=O,17.9%
6,Cc1cccc(-n2c(SCC(=O)Nc3cccc(S(=O)(=O)NC4=NCCCCC4)c3)nc3ccccc3c2=O)c1C,3.92%
7,CCS(=O)(=O)c1nc(S(=O)(=O)c2ccc(C)cc2)c(NCCCN2CCOCC2)s1,8.76%
8,COc1ccc(-c2cc(C(=O)N(C)CC(=O)Nc3ccccc3Cl)c3ccccc3n2)cc1OC,5.54%
9,COC(=O)CN(C#N)c1nc(NC(C)C)nc(OC)n1,8.06%
10,Cc1ccc(Cl)cc1NC(=O)Nc1c(C)n(C)n(-c2ccccc2)c1=O,5.58%
11,N#CCSc1nc2c(sc(=S)n2Cc2ccco2)c(=O)n1-c1ccc(F)cc1,4.84%
12,O=C(Cc1ccc(-n2cccc2)cc1)NC1CCCCC1,1.44%
13,Cc1ccc(NC(=O)NNC(=O)c2sccc2-n2cccc2)cc1,2.3%
14,CN(C)c1nc(/C=C(\C#N)C(N)=O)c(Cl)n1-c1ccc(F)cc1,6.39%
15,Cc1ccc(CNC(=O)CN(C(=O)C2(C)CC(=O)N=C3C=CC=CN32)c2ccc(F)cc2)cc1 (centres unmarked),8.44%
16,O=C(O)/C=C/C(=O)Nc1ccc(SC(F)(F)F)cc1,10.1%
17,COc1ccc(CC(=O)NCC(=O)N=Nc2c(O)[nH]c3ccccc23)cc1,14.6%
18,COc1cc(/C=C/C(=O)OCC(=O)N2CC(=O)Nc3ccccc32)ccc1O,4.51%
19,Cc1cc(C)c(NC2=CC(=O)CC(C)(C)C2)c(C#N)c1.Cl,-10.6%

row,Compound,"hERG current change (%, negative = inhibition) at 1uM"
1,COC1C/C(=N\O)C2OC(c3ccccc3)OCC2O1 (centres unmarked),5.16%
2,CC(C)Cc1cc(C(=O)Nc2ccccc2)c2ccccc2n1,14.7%
3,Cc1ccc(S(=O)(=O)N/N=C2/CC(c3ccccc3)Oc3ccccc32)cc1 (centres unmarked),2.52%
4,O=C1NC(=O)C(CCc2ccncc2)(CCc2ccncc2)C(=O)N1CCc1ccc(F)cc1,-77.1%
5,COC(=O)Nc1sc(C(=O)N(C)C)c(C)c1C(=O)OC,10.5%
6,CCOC(=O)C1=C(C)N=c2s/c(=C\c3cccn3C)c(=O)n2C1c1cccc(OC)c1OC (centres unmarked),9.51%
7,Cc1cccc(C)c1NC(=O)CNC(=O)c1ccccc1OCc1ccccc1,7.34%
8,COc1ccccc1NC(=O)C1CCCN1S(=O)(=O)c1cccc2nsnc12 (centres unmarked),16.8%
9,O=C(N/N=C/c1cccc(Cl)c1)c1c(O)c2c([nH]c1=O)CCCC2,7.1%
10,Cc1cccc(NC(=S)NNC(=S)NCc2ccccc2)c1,0.544%
11,O=C(O)Cn1cnc2c(oc3ccccc32)c1=O,14.5%
12,CC(=O)c1ccc(OCC(=O)N2CCN(S(=O)(=O)c3ccc(C)cc3C)CC2)cc1,-10.7%
13,Cc1cc(NC(=S)Nc2ccccc2)ccc1Br,2.59%
14,COc1cccc(NC(=O)Nc2ccc3nc(C)c(C)nc3c2)c1,8.78%
15,C=CCNC(=O)c1onc(CSc2ccc(F)cc2)c1C(=O)NCCOC,-3.86%
16,Cc1[nH]c2ccccc2c1/C=N/NC(=O)c1cc(-c2ccncc2)nc2ccccc12,1%
17,CC1CN(C(=O)c2ccc(COc3ccc(C(C)C)cc3)o2)CC(C)O1 (centres unmarked),6.41%
18,CCN1C(=O)[C@@H]2[C@@H](c3ccc(SC4CCCCC4)cc3)N3CCCC[C@@]3(C(=O)OC)[C@@H]2C1=O.O=C(O)C(F)(F)F,9.18%
